The data set in a line: xn = mol fraction of the nth substance listed. The note with it: 298.15 K, 101 kPa.

Some of these densities may be calculated back from excess volumes.

For the compound `CCCO` + CC(CC(C)(C)C)CP(=O)([O-])CC(C)CC(C)(C)C.CCCCCCCCCCCCCC[P+](CCCCCC)(CCCCCC)CCCCCC, the mass density – broadly, mass per unit of volume – (x1 = 1) is 799.7 kg/m3.

Regarding `CCC(C)(C)OC` + CC(CC(C)(C)C)CP(=O)([O-])CC(C)CC(C)(C)C.CCCCCCCCCCCCCC[P+](CCCCCC)(CCCCCC)CCCCCC, the mass density is on record as 884.7 kg/m3 (x1 = 0.1078); 882.8 kg/m3 (x1 = 0.2021); 880.3 kg/m3 (x1 = 0.2989); 876.4 kg/m3 (x1 = 0.4172); 872.7 kg/m3 (x1 = 0.5019); 857.6 kg/m3 (x1 = 0.7036). Moreover, the mass density is, setting by setting: (x1 = 0.7996) 844 kg/m3; (x1 = 0.9) 819.3 kg/m3; (x1 = 0.95) 798.7 kg/m3; (x1 = 1) 766 kg/m3.

`CO` + CC(CC(C)(C)C)CP(=O)([O-])CC(C)CC(C)(C)C.CCCCCCCCCCCCCC[P+](CCCCCC)(CCCCCC)CCCCCC: the mass density (x1 = 1) is reported as 786.7 kg/m3.

`CC(CC(C)(C)C)CP(=O)([O-])CC(C)CC(C)(C)C.CCCCCCCCCCCCCC[P+](CCCCCC)(CCCCCC)CCCCCC` + CC(C)OC(C)C showed a mass density (x2 = 0) of 886.4 kg/m3; a mass density (x2 = 0.0457) of 885.6 kg/m3; a mass density (x2 = 0.108) of 884.1 kg/m3; a mass density (x2 = 0.2971) of 877.8 kg/m3; a mass density (x2 = 0.4005) of 872.6 kg/m3; a mass density (x2 = 0.5002) of 866 kg/m3. For the same compound, the mass density came out at 857.2 kg/m3 (x2 = 0.5996); 844.4 kg/m3 (x2 = 0.7003); 824.9 kg/m3 (x2 = 0.8001); 790.9 kg/m3 (x2 = 0.8998); 762.3 kg/m3 (x2 = 0.9499).

Turning to `CC(CC(C)(C)C)CP(=O)([O-])CC(C)CC(C)(C)C.CCCCCCCCCCCCCC[P+](CCCCCC)(CCCCCC)CCCCCC` + CO, the mass density is given as 886.4 kg/m3 (x2 = 0); 886.4 kg/m3 (x2 = 0.1098); 886.1 kg/m3 (x2 = 0.3979); 885.7 kg/m3 (x2 = 0.5029); 884.9 kg/m3 (x2 = 0.6008); 879 kg/m3 (x2 = 0.8001).

Turning to `CC(CC(C)(C)C)CP(=O)([O-])CC(C)CC(C)(C)C.CCCCCCCCCCCCCC[P+](CCCCCC)(CCCCCC)CCCCCC` + CCCO, the mass density reads like this: (x2 = 0) 886.4 kg/m3; (x2 = 0.1063) 886 kg/m3; (x2 = 0.1942) 885.6 kg/m3; (x2 = 0.3995) 883.9 kg/m3; (x2 = 0.5025) 882.4 kg/m3; (x2 = 0.605) 880 kg/m3. The mass density was found to be 876.4 kg/m3 (x2 = 0.7012), 870 kg/m3 (x2 = 0.8005), 855.2 kg/m3 (x2 = 0.8997) and 838.2 kg/m3 (x2 = 0.9501).

For `CC(CC(C)(C)C)CP(=O)([O-])CC(C)CC(C)(C)C.CCCCCCCCCCCCCC[P+](CCCCCC)(CCCCCC)CCCCCC` + CCC(C)(C)OC, the mass density (x2 = 0) is 886.4 kg/m3.

Source of the values: a compilation of properties of binary mixtures (doi:10.1002/cjce.20546).
